Whole data set: some 81,000 sequences, median “one-hybrid fitness for binding parS DNA” near -0.17, cut for the highest 2% near 0.51. The list shows a part of the results.
B1: Caulobacter ParB omega fusion; a variant is named by its letters at X, in order, B8GW30 (parent)
chain: MESVVVGEPGMSEGRRGLGRGLSALLGEVDAAPAQAPGEQLGGSREAPIEILQRNPDQPRRTFREEDLEDLSNSIREKGVLQPILVRPSPDTAGEYQIVAGERAWRAAQRAGLKTVPIMVRELDDLAVLEIGIIENVQRADLNVLEEALSYKVLMEKFERTQENIAQTIGKSXSHVANXMRLLXLPDEVQSYLVSGELTAXHARAIAAAADPVALAKQIIEGGLSVRETEALARKAPNLSAGKSKGGRPPRVKDTDTQALESDLSSVLGLDVSIDHRGSTGTLTITYATLEQLDDLCNRLTRGI

Variants of: B1
Experiment: one-hybrid fitness for binding parS DNA (scaled: cognate 1, non-cognate 0); higher = stronger binding
Settings: with parS DNA site
Method in brief: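 Values were rescaled so that cognate is 1 and non-cognate is 0. Each is a fitness, the log change in a variant's read ratio to wild type from Illumina reads of plasmids before and after selection, with three replicate libraries pooled and variants under 10 reads dropped. Selection of the Caulobacter ParB libraries, four specificity codons randomised, used E. coli USO with a HIS3 reporter, site 19 bp from the promoter, on M9-minus-histidine with 0.1 mM IPTG and 5 mM 3-AT for 48 hours at 37°C.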

one-hybrid fitness for binding parS DNA, 0.83:
RIWT

one-hybrid fitness for binding parS DNA, 0.692:
RHKA

one-hybrid fitness for binding parS DNA, ≤ 0.2:
CQTY
RGDW
AWSV
KFTG
CFLR
CPTS
HHKA
QLQK
QQDL
WWER
NYSD
NISS
YRGT
WTTL
SVCD
PYES
IVAL
HATV
TVAM
QHPF
VHSL
WANR
PFDY
AYCT
VWKY
WHGC
CLNR
HTDG
GPCG
HVDG
AEGR
FTQG
TAHM
NLAV
IRGH
RDTR
QTGC
VAGD
CAGC
AAQS
CQVK
GGRG
RGHH
ELYC
WLLD
HYDT
SYFL
PGDS
LVYP
FAAI
YHES
KGHM
MRKY
NCAI
PTSF
MPCG
RGLP
QLSK
HCAY
FRYG
GLHR
YKTA
YVAT
PCDR
PHQS
GTVL
DYYG
FRNM
RHFD
QMWH
QSMV
LSKC
QWKD
WNRT
WAVV
SFSV
WLGT
EWHL
HSIS
KMPR
TSAN
LSES
QNRI
LVHG
QNDI
PIPT
GDGT
LCGT
WVMR
DYLK
MWML
HVCR
QECG
HPSY
TAGG
QRCT
